Data reported in PubChem BioAssay AID1347073 (National Center for Advancing Translational Sciences (NCATS), 2019).
Hit rate of the full screen: of about 45,000 compounds, about 200 (0.44%) were called active. Another 7% or so got no clear call; they are omitted. Calls follow the shape of the dose curve; as a rule, active = well fitted activation curve with a large enough effect; inconclusive = small, poorly fitted or top-dose-only effect; inactive = no such curve, though single readings can be large or run the other way. Some of the results follow.

Test: qHTS of TDP-43 Inhibitors: NCGC Sytravon Library Screen; also: 0% is about no effect; nearly all actives have a fitted effect of over 55% in size
Settings: yeast TDP-43 toxicity rescue, BacTiter-Glo growth, 24 h; series mostly up to 46.1 µM; growth rescue (activation): at the top concentration
Method in brief: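 TDP-43-expressing yeast, pregrown in raffinose, seeded at OD600 0.02 in galactose medium with compound for 24 hr at 30 deg C. Growth read by BacTiter-Glo luminescence, so rescue of toxicity appears as activation.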

SMILES	growth rescue (activation)
CC1(C(=O)NS(=O)(=O)c2cccc(OC(F)F)c2)CCN1C(=O)CCc1cccs1 (stereo not given)	inactive: 7.96%
CCN1CCN(C(=S)Nc2ccsc2C(=O)OC)CC1	inactive: -7.92%
COC(=O)c1cc(C(=O)Nc2ccc(S(N)(=O)=O)cc2)cc([N+](=O)[O-])c1	inactive: 15%
CSCCC(N=C(NS(=O)(=O)c1ccccc1)c1ccccc1)C(=O)O (stereo not given)	inactive: 31.4%
COc1ccc(F)cc1C(=O)C1CCCN(Cc2c(C)n(C)n(-c3ccccc3)c2=O)C1 (stereo not given)	inactive: 10.3%
Cc1cc(NC(=O)Nc2cccc(C)c2C)no1	inactive: 3.81%
COc1ccc(C(=O)Nc2cc3c(cc2C(=O)O)OCCCO3)c(OC)c1	inactive: 14.6%
CCOc1ccc(C(=O)OCC(=O)NCc2ccco2)cc1OCC	inactive: 12.9%
O=C(Nc1ccccc1O)c1nc(Cl)ccc1Cl	inactive: 9.34%
COc1ccc(/C=C/C(=O)OCC(=O)Nc2ccc(N3CCOCC3)cc2)cc1	inactive: 10.5%
COc1ccc(/C=C(\NC(=O)c2ccc(OCC(C)C)cc2)C(=O)OCc2ccco2)cc1	inactive: -3.04%
CN(C)c1ccc(C(=O)NNC(=O)C23CC4CC(CC(C4)C2)C3)cc1	inactive: 21.9%
CC(=O)c1cc(-c2ccccc2)n(CC(=O)N2CCCC2)c1C	inactive: -7.66%
O=C(NC1CCCC1)C1CCN(C(=O)c2ccccc2Cl)CC1	inactive: 21.5%
O=c1cnnc(N/N=C/c2c[nH]c3ccccc23)[nH]1	inactive: -0.135%
CCOc1ccc(N(CC(=O)NC2CC2)S(=O)(=O)c2ccc(C)cc2)cc1	inactive: 9.02%
Cc1ccc(NC(=O)Cc2nc(COC(=O)Cc3cccc(C(F)(F)F)c3)cs2)cc1	inactive: 3.74%
COc1cc(OC)c(C(=O)OCC(=O)N2CCOCC2)cc1OC	inactive: 6.52%
Cc1sc2nc(CSc3ccccc3)nc(N3CCN(C)CC3)c2c1C	inactive: -28.2%
COC(=O)c1ccccc1NC(=O)c1ccc(F)cc1	inactive: 7.36%
COc1cc(Cl)cc(C=O)c1OCC(=O)O	inactive: 8.3%
COc1ccc(-c2cc(NC=O)c3ncc(-c4ccc(C(C)=O)cc4)n3c2)cc1OC	inactive: 16.4%
COc1ccc(NC(=O)COC(=O)Cn2cnc3ccccc3c2=O)cc1OC	inactive: 9.33%
CCc1ccc(OCC(=O)NNC(=O)CSc2nnc(-c3ccc(C)cc3)n2C)cc1	inactive: 3.52%
O=C(COC(=O)CNC(=O)c1ccccc1)Nc1ccc2c(c1)OCO2	inactive: -0.417%
NC(=O)NC(=O)CSc1nc2sc(-c3ccccc3)cc2c(=O)n1-c1ccccc1	inactive: 12.7%
O=C(NC1CCS(=O)(=O)C1)C1C2CC3CC(C2)CC1C3 (stereo not given)	inactive: -1.05%

SMILES	growth rescue (activation)
CCN(CC)CCN(Cc1cc2cc(C)cc(C)c2[nH]c1=O)C(=S)NCc1ccco1	inactive: -8.62%
Cc1nnc(SCC(=O)NNC(=O)COc2ccc(Cl)cc2)n1C	inactive: 9.6%
Cc1ccc(S(=O)(=O)CCC(=O)NCc2ccc(Cl)cc2)cc1	inactive: 4.04%
CN(C)CCNc1ccc(Cl)cc1[N+](=O)[O-]	inactive: 13.4%
O=C(Nc1ccc2oc(-c3cccnc3)nc2c1)c1ccc(-c2cccc(Cl)c2)o1	inactive: 15.1%
CCOc1ccccc1NC(=O)c1ccc2nc[nH]c2c1	inactive: 7.54%
CC(C)(C)c1cc(NC(=O)C2(C)CCN2C(=O)C2(c3ccccc3)CC2)no1 (stereo not given)	inactive: 29.3%
O=C(Nc1nccs1)C1CC(=O)N(c2ccccc2)C1 (stereo not given)	inactive: 0.687%
CCN(CC(=O)Nc1ccc2c(c1)OCCO2)CC(=O)Nc1ccc(C)c([N+](=O)[O-])c1	inactive: 10.4%
CC1(C(=O)NS(=O)(=O)c2ccccc2OC(F)(F)F)CCN1C(=O)c1ccccc1 (stereo not given)	inactive: 15.1%
CCOc1cc(C(=O)Nc2cccc(OCC(=O)N3CCOCC3)c2)cc(OCC)c1OCC	inactive: -16.1%
O=C(CN1C(=O)NC2(CCCC2)C1=O)Nc1cccc(C(F)(F)F)c1	inactive: 9.29%
Cn1c(=O)c(=O)n(C)c2cc([N+](=O)[O-])c(N3CCOCC3)cc21	inactive: -1.36%
CCc1nc2ccc(C(=O)NCCC(C)C)cn2c1N(CCN(C)C)CC1CC1	inactive: -3.02%
CS(=O)(=O)N1CCC(C(=O)N2CCN(c3cccc(Cl)c3)CC2)CC1	inactive: 4.57%
CCc1ccc(N2CC(O)=C(c3nc4ccccc4c(=O)[nH]3)C2=N)cc1	inactive: -4.78%
CC(OC(=O)c1ccc(NC(=O)CC#N)cc1)C(=O)NC(c1ccccc1)c1ccccc1 (stereo not given)	inactive: 25.2%
COCCNC(=O)C1(C)CCCN(C(=O)c2cccc3ccccc23)C1 (stereo not given)	inactive: -8.19%
CN(C)CCNc1nc(-c2ccccc2F)c2sccc2n1	inactive: -13.4%
CC(N)c1csc(Nc2ccc(C(=O)c3ccccc3)cc2)n1 (stereo not given)	inactive: 12.2%
COc1ccc(NC(=O)CN2C(=O)NC(c3ccccc3)(c3ccccc3)C2=O)cc1OC	inactive: -1.88%
COc1ccc(NC(=O)CN2C(=O)NC(C)(c3ccc4c(c3)OCO4)C2=O)cc1S(N)(=O)=O (stereo not given)	inactive: 5.01%
Cc1ccc(/C=N/Nc2ccc(F)cc2)s1	inactive: 18.1%
CCOC(=O)N1CCN(S(=O)(=O)c2cccc3cccnc23)CC1	inactive: 41.4%
CCOc1ccc(CNC(=O)c2ccc3c(c2)N(CC)CCS3)cc1	inactive: 2.16%
CS(=O)(=O)c1ccc(C(=O)NCC2(N3CCOCC3)CCCCC2)cc1	inactive: 8.4%
O=C(NCc1cccc(Cl)c1)N1CCN(S(=O)(=O)c2ccccc2F)CC1	inactive: 29.5%

SMILES	growth rescue (activation)
Cc1cccc(-n2ncc3c2CCCC3NC(=O)Cn2cccn2)c1C (stereo not given)	inactive: -0.0808%
COc1ccc(C(=O)NNC(=O)c2ccc(F)c(S(=O)(=O)N3CCOCC3)c2)cc1	inactive: -0.947%
CCCNC(=O)Cn1c(=O)cnc2ccccc21	inactive: -15.6%
Cc1cc(Cl)ccc1NC(=O)C(=O)N/N=C/c1ccc2c(c1)OCO2	inactive: 3.41%
Cc1nn(-c2ccccc2)c(N)c1C(c1ccccc1)c1c(C)nn(-c2ccccc2)c1N	inactive: 14.9%
O=C(CSc1nnc(NC(=O)c2ccccc2F)s1)NC1CC1	inactive: 11.7%
Cc1cc(C)n(C(=O)/C(C#N)=C/N(C)C)n1	inactive: 0.488%
CC(O)CNc1nc2ccccc2n1CC(=O)N1CCN(Cc2ccccc2)CC1 (stereo not given)	inactive: 4.14%
Cc1cccc(NC(=O)CCC(=O)Nc2nnc(C(F)(F)F)s2)c1	inactive: -1.56%
O=C(Cc1ccccc1)Nc1ccc(NC(=O)c2ccco2)cc1	inactive: -15.4%
COc1ccc(-c2cc(C(F)(F)F)nc(SCC(=O)Nc3cc(C)on3)n2)cc1OC	inactive: -3.1%
O=C(CNS(=O)(=O)c1ccc(F)cc1)N1CCOCC1	inactive: 13.2%
O=C(COc1ccccc1/C=C1\SC(=S)NC1=O)Nc1ccc(F)cc1	inactive: 2.71%
CC(=O)Nc1ccc(S(=O)(=O)NC2=NCN(C)CN2)cc1	inactive: 2.14%
C=CCc1cccc(/C=N/NC(=O)C(C)Nc2cccc(C)c2)c1O (stereo not given)	inactive: -14.7%
CCOc1ccc2nc(S(=O)(=O)NC(=O)C3(C)CCN3C(=O)CCc3cccs3)sc2c1 (stereo not given)	inactive: 13.6%
CCCc1nc2ccccc2c(=O)n1-c1c(C)n(C)n(-c2ccccc2)c1=O	inactive: 16.3%
Cc1ccc(S(=O)(=O)CC(=O)N2CCN(c3ccc(F)cc3)CC2)cc1	inactive: 23.1%
COCCOC1CCN(C(=O)c2cc(COc3ccc(F)cc3F)on2)CC1	inactive: 18.9%
O=C(O)c1ccc(Cl)c(S(=O)(=O)NCc2cccnc2)c1	inactive: 2.07%
O=C1N(Cc2cccc(Cl)c2)C[C@@H]2C[C@@H](c3ccco3)N3CCC[C@@]123	inactive: 0.263%
COc1ccc(C(=O)/C=C/c2ccc(OC)c(Cn3nnc4ccccc43)c2)cc1	inactive: -5.5%
CCN(CC(=O)NCc1ccncc1)S(=O)(=O)c1ccccc1	inactive: 3.07%
CCOP(=O)(OCC)C(C#N)=C1SCN(c2ccccc2)CS1	inactive: 25.8%
Nc1ccccc1C(=O)N/N=C1/C2CN3CCN(C2)CC1(Cc1ccccc1)C3	inactive: 0.336%
CC(C)c1ccc(C(C(=O)NC2CCCCC2)N(C(=O)c2csnn2)C2CC2)cc1 (stereo not given)	inactive: 10.5%
Cn1c(N)c(C(=O)COC(=O)CCCc2c[nH]c3ccccc23)c(=O)n(C)c1=O	inactive: 0.0655%

SMILES	growth rescue (activation)
CCOc1ccc(NC(=S)N2CCC(N(C)CC3CCCO3)CC2)cc1 (stereo not given)	inactive: 4.34%
CCn1c(SCC(=O)NC2CC2)nnc1-c1ccc(OC)cc1	inactive: -5.46%
O=C(NCCc1ccccc1)C1CCCN(C(=O)Nc2ccc(F)cc2)C1 (stereo not given)	inactive: 3.38%
CC(NC(=O)COC(=O)CNC(=O)c1ccccc1Cl)C1CC2CCC1C2 (stereo not given)	inactive: 5.78%
O=C(COC(=O)c1sc2ccccc2c1Cl)NC1CCCCC1	inactive: 14.1%
COc1ccc(NC(=O)c2cc3ccccc3o2)cc1S(=O)(=O)N1CCCCC1	inactive: -13.2%
Cc1cccc(-c2c3c(=O)n(C)c(=O)n(C)c3c3nnc4ccccc4n23)c1	inactive: 13.1%
CC1CCCC(NC(=O)COC(=O)CCC(=O)c2cccs2)C1C (stereo not given)	inactive: 15.1%
CC(=O)NCCC(=O)Nc1cc(S(=O)(=O)Nc2ccc(Cl)cc2)ccc1N1CCCC1	inactive: 4.59%
O=[N+]([O-])c1ccccc1N(CC1CO1)S(=O)(=O)c1ccccc1 (stereo not given)	inactive: 3.81%
Cc1ccccc1OCc1nc2c3cnn(-c4cccc(F)c4)c3ncn2n1	inactive: 4.26%
CCOC(=O)C1=C(C)NC(=O)CC1c1cc2c(cc1[N+](=O)[O-])OCO2 (stereo not given)	inactive: 10.2%
COc1ccc(Cn2c(C)c(C)c(C#N)c2NC(=O)Nc2ccccc2)cc1	inactive: 26.4%
Cc1cc2nnc(SCC(=O)Nc3cccc(S(=O)(=O)N4CCOCC4)c3)n2c2ccccc12	inactive: -27.1%
CCOc1cc(N2CCOCC2)c(OCC)cc1NC(=O)c1ccc(-n2ccnc2)c([N+](=O)[O-])c1	inactive: 21.2%
COc1ccc(NS(=O)(=O)c2ccc(N/N=C(\C)c3ccncc3)c([N+](=O)[O-])c2)cc1	inactive: 2.28%
COC(=O)c1c(NC(=O)/C(C#N)=C/c2ccc(OC)cc2)sc2c1CCC2	inactive: 0.527%
c1ccc2c(c1)CN1CCCC1=N2	inactive: -15.8%
O=S(=O)(c1ccc(N2CCOCC2)c(Cl)c1)N1CCOCC1	inactive: 18.1%
COc1ccc(S(=O)(=O)N2CCCC2)cc1NC(=O)c1ccccc1	inactive: -6.84%
COc1ccc(-c2ccc(C(=O)NCc3ccccc3)c3occc23)c(C)c1	inactive: 19.7%
COc1ccc(N=Cc2sc(O)c3ccccc23)cc1	inactive: 16.9%
CCc1ccc(N2CC(C(=O)N3CCCCCC3)CC2=O)cc1 (stereo not given)	inactive: 7.63%
COc1cccc(NC(=S)N(Cc2cccc(Br)c2)CC2CCC(C(=O)O)CC2)c1 (stereo not given)	inactive: 10.1%
